Numbering of substitutions follows the chain as printed; changes in the protein carry UniProt numbers. This is one part of the list.

Experimental findings from paper PMC9911399, “Two distinct binding modes provide the RNA-binding protein RbFox with extraordinary sequence specificity” are described below.

The chains are these.
T1: RBFOX1 RRM RbFoxmut (Fox-RRM*) (Homo sapiens, UniProt Q9NWB1 109-208, R118D;E147R;N151S;E152T)
T1 sequence: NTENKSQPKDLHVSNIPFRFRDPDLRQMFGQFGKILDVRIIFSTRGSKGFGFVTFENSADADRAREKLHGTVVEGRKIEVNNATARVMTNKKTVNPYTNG

B1: GCUACCC (DNA:RNA)
RNA: GGGAGACCGGAAUUCAGAUUGUCCGCUACCCUUAAAUCCCGUCGUAGCCACCA
DNA 1: CAATCTGAATTCCGGTCTCCC
DNA 2: TGGTGGCTACGACGGGATT
B2: GUUUGAA (DNA:RNA)
RNA: B1 RNA with C26U, A28U, C29G, C30A, C31A
DNA 1: CAATCTGAATTCCGGTCTCCC
DNA 2: TGGTGGCTACGACGGGATT
B3: CUUUGGG (DNA:RNA)
RNA: B1 RNA with G25C, C26U, A28U, C29G, C30G, C31G
DNA 1: CAATCTGAATTCCGGTCTCCC
DNA 2: TGGTGGCTACGACGGGATT
B4: CAACCGC (DNA:RNA)
RNA: B1 RNA with G25C, C26A, U27A, A28C, C30G
DNA 1: CAATCTGAATTCCGGTCTCCC
DNA 2: TGGTGGCTACGACGGGATT
B5: UAGGCGU (DNA:RNA)
RNA: B1 RNA with G25U, C26A, U27G, A28G, C30G, C31U
DNA 1: CAATCTGAATTCCGGTCTCCC
DNA 2: TGGTGGCTACGACGGGATT
B6: UUAUCGU (DNA:RNA)
RNA: B1 RNA with G25U, C26U, U27A, A28U, C30G, C31U
DNA 1: CAATCTGAATTCCGGTCTCCC
DNA 2: TGGTGGCTACGACGGGATT
B7: GAUACGU (DNA:RNA)
RNA: B1 RNA with C26A, C30G, C31U
DNA 1: CAATCTGAATTCCGGTCTCCC
DNA 2: TGGTGGCTACGACGGGATT
B8: ACAGCCU (DNA:RNA)
RNA: B1 RNA with G25A, U27A, A28G, C31U
DNA 1: CAATCTGAATTCCGGTCTCCC
DNA 2: TGGTGGCTACGACGGGATT
B9: UUUAAAG (DNA:RNA)
RNA: B1 RNA with G25U, C26U, C29A, C30A, C31G
DNA 1: CAATCTGAATTCCGGTCTCCC
DNA 2: TGGTGGCTACGACGGGATT
B10: AGUAGGU (DNA:RNA)
RNA: B1 RNA with G25A, C26G, C29G, C30G, C31U
DNA 1: CAATCTGAATTCCGGTCTCCC
DNA 2: TGGTGGCTACGACGGGATT
B11: AGCGGAG (DNA:RNA)
RNA: GGGAGACCGGAAUUCAGAUUGUCCAGCGGAGUUAAAUCCCGUCGUAGCCACCA
DNA 1: CAATCTGAATTCCGGTCTCCC
DNA 2: TGGTGGCTACGACGGGATT
B12: GUGGCAG (DNA:RNA)
RNA: B11 RNA with A25G, G26U, C27G, G29C
DNA 1: CAATCTGAATTCCGGTCTCCC
DNA 2: TGGTGGCTACGACGGGATT
B13: GACACGC (DNA:RNA)
RNA: B1 RNA with C26A, U27C, C30G
DNA 1: CAATCTGAATTCCGGTCTCCC
DNA 2: TGGTGGCTACGACGGGATT
B14: UGGAUCA (DNA:RNA)
RNA: B1 RNA with G25U, C26G, U27G, C29U, C31A
DNA 1: CAATCTGAATTCCGGTCTCCC
DNA 2: TGGTGGCTACGACGGGATT
B15: ACAACCC (DNA:RNA)
RNA: B1 RNA with G25A, U27A
DNA 1: CAATCTGAATTCCGGTCTCCC
DNA 2: TGGTGGCTACGACGGGATT
B16: GGUUUUU (DNA:RNA)
RNA: B1 RNA with C26G, A28U, C29U, C30U, C31U
DNA 1: CAATCTGAATTCCGGTCTCCC
DNA 2: TGGTGGCTACGACGGGATT
B17: ACCGGUU (DNA:RNA)
RNA: B11 RNA with G26C, A30U, G31U
DNA 1: CAATCTGAATTCCGGTCTCCC
DNA 2: TGGTGGCTACGACGGGATT
B18: GAAGUCA (DNA:RNA)
RNA: B1 RNA with C26A, U27A, A28G, C29U, C31A
DNA 1: CAATCTGAATTCCGGTCTCCC
DNA 2: TGGTGGCTACGACGGGATT
B19: AGCUGUG (DNA:RNA)
RNA: B11 RNA with G28U, A30U
DNA 1: CAATCTGAATTCCGGTCTCCC
DNA 2: TGGTGGCTACGACGGGATT
B20: AUCUGUG (DNA:RNA)
RNA: B11 RNA with G26U, G28U, A30U
DNA 1: CAATCTGAATTCCGGTCTCCC
DNA 2: TGGTGGCTACGACGGGATT
B21: CCGGGAU (DNA:RNA)
RNA: B11 RNA with A25C, G26C, C27G, G31U
DNA 1: CAATCTGAATTCCGGTCTCCC
DNA 2: TGGTGGCTACGACGGGATT
B22: UGUGAAA (DNA:RNA)
RNA: B11 RNA with A25U, C27U, G29A, G31A
DNA 1: CAATCTGAATTCCGGTCTCCC
DNA 2: TGGTGGCTACGACGGGATT
B23: GGUGGCA (DNA:RNA)
RNA: B11 RNA with A25G, C27U, A30C, G31A
DNA 1: CAATCTGAATTCCGGTCTCCC
DNA 2: TGGTGGCTACGACGGGATT
B24: GGCGACU (DNA:RNA)
RNA: B11 RNA with A25G, G29A, A30C, G31U
DNA 1: CAATCTGAATTCCGGTCTCCC
DNA 2: TGGTGGCTACGACGGGATT
B25: UGCCUUC (DNA:RNA)
RNA: B11 RNA with A25U, G28C, G29U, A30U, G31C
DNA 1: CAATCTGAATTCCGGTCTCCC
DNA 2: TGGTGGCTACGACGGGATT
B26: CUGGUCU (DNA:RNA)
RNA: B11 RNA with A25C, G26U, C27G, G29U, A30C, G31U
DNA 1: CAATCTGAATTCCGGTCTCCC
DNA 2: TGGTGGCTACGACGGGATT
B27: AUGUGGA (DNA:RNA)
RNA: B11 RNA with G26U, C27G, G28U, A30G, G31A
DNA 1: CAATCTGAATTCCGGTCTCCC
DNA 2: TGGTGGCTACGACGGGATT
B28: GCUGAUC (DNA:RNA)
RNA: B1 RNA with A28G, C29A, C30U
DNA 1: CAATCTGAATTCCGGTCTCCC
DNA 2: TGGTGGCTACGACGGGATT
B29: AUCCGAG (DNA:RNA)
RNA: B11 RNA with G26U, G28C
DNA 1: CAATCTGAATTCCGGTCTCCC
DNA 2: TGGTGGCTACGACGGGATT
B30: GCGUGCA (DNA:RNA)
RNA: B1 RNA with U27G, A28U, C29G, C31A
DNA 1: CAATCTGAATTCCGGTCTCCC
DNA 2: TGGTGGCTACGACGGGATT
B31: GUCGAGC (DNA:RNA)
RNA: B11 RNA with A25G, G26U, G29A, A30G, G31C
DNA 1: CAATCTGAATTCCGGTCTCCC
DNA 2: TGGTGGCTACGACGGGATT

The target in the test is T1, RBFOX1 RRM RbFoxmut (Fox-RRM*). Description: EMSA; HiTS-Eq, 1 nM pool, 10 min; buffer printed only for the single-RNA assays: 10 mM Tris pH 7.5, 150 mM NaCl, 3.4 mM EDTA, 0.001% NP-40, 30 C. As to conditions: tags: His6 N-terminal (pET28a); label: 5' 32P. In a few lines: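 Purified RbFox RRM, wild type or mutant, was incubated for 10 min in 50 µL with 1 nM of a 5′-radiolabelled RNA pool carrying 7 randomized nucleotides, whose flanks were annealed to DNA oligonucleotides, over a series of increasing protein concentrations. Unbound RNA was resolved on 8% native PAGE, cut out, reverse-transcribed, barcoded by PCR and sequenced on an Illumina HiSeq 2500. Relative association constants were derived from changes in read counts for each RNA species versus the control reaction and normalised to the cognate motif.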
Background: In EMSA bound probe runs differently from free probe, usually more slowly.
For B1, the binding signal is 0.0702 KA relative to UGCAUGU. With B2 the figure was 0.184 KA relative to UGCAUGU. In the case of B3, the binding signal was 0.0641 KA relative to UGCAUGU. With B4 the figure was 0.0715 KA relative to UGCAUGU. The result for B5 reads 0.0882 KA relative to UGCAUGU. The result for B6 reads 0.087 KA relative to UGCAUGU. In the case of B7, the binding signal was 0.106 KA relative to UGCAUGU.

Consider B8, for which the binding signal was 0.0684 KA relative to UGCAUGU. With B9, the binding signal is 0.108 KA relative to UGCAUGU. For the molecule B10, the binding signal is 0.112 KA relative to UGCAUGU. The result for B11 reads 0.119 KA relative to UGCAUGU; that for B12, 0.13 KA relative to UGCAUGU; that for B13, 0.0716 KA relative to UGCAUGU. With B14 the figure was 0.29 KA relative to UGCAUGU; with B15, 0.0801 KA relative to UGCAUGU. With B16 the figure was 0.056 KA relative to UGCAUGU; with B17, 0.0694 KA relative to UGCAUGU.

For the molecule B18, the binding signal was 0.0832 KA relative to UGCAUGU. With B19 the figure was 0.173 KA relative to UGCAUGU. With B20 the figure was 0.14 KA relative to UGCAUGU; with B21, 0.101 KA relative to UGCAUGU; with B22, 0.105 KA relative to UGCAUGU. The result for B23 reads 0.173 KA relative to UGCAUGU. Consider B24, for which the binding signal is 0.0902 KA relative to UGCAUGU. B25: the binding signal is 0.185 KA relative to UGCAUGU.

In the case of B26, the binding signal is 0.101 KA relative to UGCAUGU. Turning to B27, the binding signal was 0.0866 KA relative to UGCAUGU. The result for B28 reads 0.0965 KA relative to UGCAUGU; that for B29, 0.108 KA relative to UGCAUGU.

Regarding B30, the binding signal was 0.225 KA relative to UGCAUGU. Turning to B31, the binding signal is 0.0952 KA relative to UGCAUGU.
